Data reported in PubChem BioAssay AID504332 (National Center for Advancing Translational Sciences (NCATS), 2011).
In all, about 350,000 compounds went through this assay and about 31,000 (8.9%) were called active. The shares of active, inactive and inconclusive entries below differ from those in the screen. Calls come from the whole dose curve; as a rule, active = well fitted inhibition curve with a large enough effect; inconclusive = small, poorly fitted or top-dose-only effect; inactive = no such curve, though single readings can be large or run the other way. Potencies of inconclusive entries are doubtful fits and often do not repeat.

Target: Histone-lysine N-methyltransferase EHMT2 (Homo sapiens) (UniProt Q96KQ7)
Experiment: qHTS Assay for Inhibitors of Histone Lysine Methyltransferase G9a; note: nearly all actives have a fitted effect of over 75% in size
Conditions: G9a H3K9 monomethylation, AlphaScreen, 2 h; activity, negative = inhibition: at 59 µM (top of the series) unless noted
Outline: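 G9a (20 nM) preincubated 15 min RT with compounds, then 500 nM biotinylated H3K9 peptide and 20 uM SAM added; 2 h RT reaction. Monomethyl-H3K9 product detected by AlphaScreen with anti-H3K9me1 antibody, streptavidin donor and anti-rabbit IgG acceptor beads.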
% is set by controls: 0 for no effect and ±100 for the full control effect; potency is the fitted concentration of half-maximal effect; tags give direction and shape of the fitted curve.

Chain of UniProt Q96KQ7 (Q96KQ7 whole entry, looked up): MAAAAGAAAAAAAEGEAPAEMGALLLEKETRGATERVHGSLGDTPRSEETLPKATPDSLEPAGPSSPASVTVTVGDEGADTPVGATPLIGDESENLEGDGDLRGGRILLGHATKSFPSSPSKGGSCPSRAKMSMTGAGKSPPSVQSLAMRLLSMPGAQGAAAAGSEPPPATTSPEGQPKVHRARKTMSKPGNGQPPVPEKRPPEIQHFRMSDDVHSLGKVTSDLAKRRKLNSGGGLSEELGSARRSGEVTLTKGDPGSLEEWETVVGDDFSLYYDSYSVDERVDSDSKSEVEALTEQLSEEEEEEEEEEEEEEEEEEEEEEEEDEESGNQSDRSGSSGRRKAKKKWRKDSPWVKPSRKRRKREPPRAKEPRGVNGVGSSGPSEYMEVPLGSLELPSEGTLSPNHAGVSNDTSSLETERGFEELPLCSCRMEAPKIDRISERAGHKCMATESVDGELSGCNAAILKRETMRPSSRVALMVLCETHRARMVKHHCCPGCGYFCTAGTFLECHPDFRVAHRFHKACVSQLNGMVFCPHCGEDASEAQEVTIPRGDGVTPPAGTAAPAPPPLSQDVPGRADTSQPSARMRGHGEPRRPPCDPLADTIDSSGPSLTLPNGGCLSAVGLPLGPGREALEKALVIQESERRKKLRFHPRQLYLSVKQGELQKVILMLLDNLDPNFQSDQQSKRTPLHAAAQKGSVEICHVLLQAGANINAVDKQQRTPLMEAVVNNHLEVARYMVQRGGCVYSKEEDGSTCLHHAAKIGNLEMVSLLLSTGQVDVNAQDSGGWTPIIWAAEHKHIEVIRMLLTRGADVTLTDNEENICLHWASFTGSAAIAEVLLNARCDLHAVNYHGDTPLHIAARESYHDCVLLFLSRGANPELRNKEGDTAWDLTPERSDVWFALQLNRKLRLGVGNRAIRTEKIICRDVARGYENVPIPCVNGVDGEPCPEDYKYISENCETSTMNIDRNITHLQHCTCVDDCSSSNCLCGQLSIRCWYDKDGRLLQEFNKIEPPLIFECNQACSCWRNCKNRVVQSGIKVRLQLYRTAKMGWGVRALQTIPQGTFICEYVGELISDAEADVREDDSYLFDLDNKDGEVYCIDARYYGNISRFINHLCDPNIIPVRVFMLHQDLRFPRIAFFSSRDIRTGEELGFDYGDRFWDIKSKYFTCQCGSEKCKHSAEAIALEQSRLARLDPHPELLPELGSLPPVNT

SMILES	Potency	activity, negative = inhibition
O=C(O)c1ccc(N2CCc3ccccc32)c([N+](=O)[O-])c1	inconclusive: 50.1 µM [inhibitor, partial curve, poor fit]	
O=[N+]([O-])c1cnccc1Nc1ccc(Cl)cc1	inconclusive: 89.1 µM [inhibitor, partial curve, poor fit]	
CCOC(=O)c1ccc(NC(=O)C2(c3ccccc3)CCCC2)cc1		inactive: 54.2% [at 102 µM]
COc1ccc(-c2csc(NC(=O)CN3C(=O)NC4(CCCC4)C3=O)n2)c(OC)c1	active: 50.1 µM	
CCc1nnc(NC(=O)c2ccc(COc3ccccc3C)o2)s1		inactive: 9.17% [at 102 µM]
O=C(CSc1nc(=O)n(CCCN2CCOCC2)c2c1CCCC2)Nc1cccc([N+](=O)[O-])c1	inconclusive: 89.1 µM [inhibitor, single point]	
CC(c1ccc(F)cc1)n1cc(C(=O)NCCN(C)C)nn1 (configuration not stated)	active: 44.7 µM	
Cc1ccc(S(=O)(=O)N2CCN(C(=O)CN3C(=O)NC4(CCCC4)C3=O)CC2)c(C)c1		inactive: 10.5% [at 0.501 µM]
COc1cc(OC)cc(C(=O)OCC(=O)NCc2ccco2)c1	inconclusive: 31.6 µM [inhibitor, single point]	
CCOC(=O)c1c(-c2ccc(OC)c(OC)c2)csc1NC(=O)C1CCCO1 (configuration not stated)	inconclusive: 70.8 µM [inhibitor, partial curve]	
S=C(/N=c1/sccn1Cc1ccccc1)NC1CC1	active: 50.1 µM	
C1CN(c2nc(N3CCOCC3)nc(N3CCOCC3)n2)CCO1		inactive: 26.1%
O=c1c2ccccc2[nH]c(=S)n1CCCN1CCN(C2CCCCC2)CC1	inconclusive: 39.8 µM [inhibitor, single point]	
CCN(CC)c1ccc(NC(=O)c2ccc(Br)o2)cc1	active: 2.24 µM	
CCCC(=O)C1=C(c2ccc(C)cc2)N(C(=O)CCC)n2cnnc2S1		inactive: 14.2%
Cc1ccc(OCCn2cc(C(=O)c3ccco3)c3ccccc32)cc1C		inactive: -35.5%
COC(=O)C1=C(C(=O)OC)SC(=C2C(=S)C(C)(C)N(C(=O)CC(C)C)c3ccccc32)S1	active: 7.94 µM	
Cn1c(=O)[nH]c(=O)c2c1nc(Br)n2CC(O)COc1ccccc1 (configuration not stated)	inconclusive: 89.1 µM [inhibitor, single point]	
S=c1[nH]nc(COc2ccccc2)n1/N=C/c1ccc(Cl)cc1Cl	inconclusive: 56.2 µM [inhibitor, partial curve, poor fit]	
O=C1[C@@H]2C[C@@H]3C[C@H]1C[C@@](O)(C3)C2		inactive: -5.62% [at 12.7 µM]
COc1cc(C2/C(=C(/O)c3ccccc3)C(=O)C(=O)N2c2ccccn2)ccc1O (configuration not stated)		inactive: -29.6% [at 102 µM]
CCN(CC)c1ccc(/C=N/OC(C)C(=O)Nc2ccc(C)cc2)cc1 (configuration not stated)		inactive: -22.9% [at 102 µM]
O=C(NCCCn1ccnc1)c1cccnc1		inactive: 6.92%
Cc1occc1-c1nnc(SCC(=O)NC2(C#N)CCCC2)n1C	inconclusive: 89.1 µM [inhibitor, single point]	

SMILES	Potency	activity, negative = inhibition
Cc1c(C(=O)NNC(=O)c2csc(N3CCOCC3)n2)cccc1[N+](=O)[O-]		inactive: 20.7% [at 12.7 µM]
O=C(CS(=O)(=O)c1c[nH]c2ccccc12)Nc1ccc2c(c1)OCCO2		inconclusive: -85.8% [inhibitor]
CCOC(=O)c1ccc(NC2c3ccccc3C(=O)N2c2ccccn2)cc1 (configuration not stated)	active: 50.1 µM	
Cc1cccc(N2CCN(c3ccc4cc(S(=O)(=O)N5CCCCC5)ccc4n3)CC2C)c1 (configuration not stated)	active: 25.1 µM	
C/C(N)=C(/C#N)C(=O)CSc1nc(-c2ccccc2)c(-c2ccccc2)o1	inconclusive: 20 µM [inhibitor, partial curve, poor fit]	
CCOc1ccccc1C1CC(=O)NC2=C1C(=O)CCC2 (configuration not stated)	inconclusive: 56.2 µM [inhibitor, partial curve, poor fit]	
CCc1cccc(CC)c1NC(=S)NCCc1ccc(O)c(O)c1	inconclusive: 15.8 µM [inhibitor, partial curve, poor fit]	
CCN(Cc1ccccc1)S(=O)(=O)c1ccc(C(=O)N(CCCN(C)C)c2nc3cc(OC)ccc3s2)cc1	active: 44.7 µM	
CCCOC(=O)C[N+](C)(C)CCOC1CC2CCC1(C)C2(C)C (configuration not stated)		inactive: 7.4% [at 12.7 µM]
Cc1cccc(N2CC(C(=O)Nc3nnc(SCC(=O)Nc4nccs4)s3)CC2=O)c1 (configuration not stated)	inconclusive: 25.1 µM [inhibitor, single point]	
O=C(CSC(=S)N1CCCC1)N1CCN(S(=O)(=O)c2cccc([N+](=O)[O-])c2)CC1	active: 39.8 µM	
NCCS(=O)(=O)NC1CCCCC1	inconclusive: 0.794 µM [inhibitor, partial curve, poor fit]	
O=c1[nH][nH]c2cc(=O)n(-c3cccc(C(F)(F)F)c3)nc12	inconclusive: 35.5 µM [inhibitor, partial curve, poor fit]	
Cc1ccc(N2CCN(C(=O)C3CCC(=O)N(Cc4ccc(Cl)cc4)C3)CC2)c(C)c1 (configuration not stated)		inactive: -7.81% [at 102 µM]
Cn1c(SCC(=O)Nc2ccc(N3CCOCC3)cc2)nnc1C(F)(F)F	inconclusive: 4.47 µM [inhibitor, single point]	
COc1ccc(NC(=O)c2cc(-c3ccccc3)oc2C)cc1	inconclusive: 3.98 µM [inhibitor, full curve]	
CC(O)CN(Cc1cccc(Cl)c1)CC(C)O (configuration not stated)	inconclusive: 2.24 µM [inhibitor, partial curve, poor fit]	
O=C(NNC(=O)c1cc([N+](=O)[O-])ccc1Cl)c1cccnc1		inactive: 11% [at 102 µM]
CCOC(=O)Cc1nnn(CC(=O)OCC)n1	inconclusive: 89.1 µM [inhibitor, single point]	
C=CCn1c(Cc2cccs2)nnc1SCC(=O)Nc1ccc(C(=O)OCC)cc1		inactive: 3.67% [at 102 µM]
COc1ccc(NC(=O)c2sc(N)nc2-c2ccccc2)cc1		inactive: -2.46% [at 102 µM]
O=C(Nc1nnc(S(=O)(=O)N2CCCCC2)s1)c1ccc(F)cc1	active: 14.1 µM	
O=C(O)C1CC(=O)N(c2ccc(OCc3ccc(Br)cc3)cc2)C1 (configuration not stated)	inconclusive: 89.1 µM [inhibitor, partial curve, poor fit]	
